# Results: the supplement of paper PMC11417369
# Some of the results follow.
# System: PfSIP2 AP2 domain 1 (GST-tagged)
# Experiment: gcPBM binding intensity (ln(normalized median fluorescence intensity)); higher = stronger DNA binding
# Outline: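 An Agilent 4 × 180k array of primer-extended double-stranded 36-bp intergenic genomic probes, with negative controls, was incubated for 1 h with GST-tagged P. falciparum DNA-binding domains expressed in E. coli. Alexa488 anti-GST antibody detected bound protein, scanned at 488 nm. Binding intensity is the highest Masliner-normalised natural-log median intensity across replicate spots of either probe orientation.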
row,Sequence,gcPBM binding intensity (ln)
1,TAATGTTGTTTCTGAGGTACACAATTTTTTTTATTT [XGTACX_site8035],6.83
2,TTAATGAAATATTATACACACAAAAAAATAATTTTA [CACACA_site4231],6.83
3,TACACTTTTTTTTGTACACACTAAAAAGATTAACAA [CACACA_site6037],6.95
4,TATATATATGGACACACACACACCAAAGCGTAGCGC [CACACA_site4209],7.41
5,ACCATACAGAATAATGCATGTTCCTTTTTATGAATA [TGCATGCA_site995],6.99
6,TATACTTGTAAATGCACACATAAGATGCGACTAATG [CACACA_site2118],7.37
7,AAAAAAATAAAGGATATACACACTAATTATATATAT [CACACA_site2812],7.61
8,CCAACATAGAGGGGCACACACATATATACCTAAAAA [CACACA_site5088],7.58
9,AGATTATAAAATTCTACACACATATATACCTATATA [CACACA_site5848],6.89
10,CTGTGTTTTGGTTGTACACACGCTACATTCTATATT [CACACA_site2698],7.95
11,AAAATAATTGTTTACACACCCATTTGTAATTTTACC [CACACA_site3614],6.98
12,AATTATATGCTTAATACGCACACGGGAAAAAAAAAA [CACACA_site1376],7.2
13,TAAATAAAAAAAAATCGTACATATATTTTATATATG [XGTACX_site3293],6.82
14,TTTTCAAAAATATACACACACATAAATATCTGTATA [CACACA_site4586],6.99
15,TATTTACATTTTAGTAGTACATATATGTATATATAT [XGTACX_site6839],7.66
16,TCGTAATAATAGTTGAGTACGCACTAATATGTCAAT [XGTACX_site643],7.62
17,AGATAAAATATATATGCACACACATATATATTTCAT [CACACA_site9183],7.13
18,TAATTATTTAAAAAGAGTACATTTTTTTTTTTTTTT [XGTACX_site1060],7.29
19,ATAATTATTTAATATATATATATTATTTCGAATGTT [GTGCAC_negctrl_site688],7.03
20,TTAATAATTAATATATGTACTGATAAATAACATATA [XGTACX_site3966],6.85
21,ATTCTATATAAATATACACACATATATAAAATACAT [CACACA_site2293],7.13
22,TGTTTGTAATTATGTATGCACTTTTTTGTATGTGTG [GTGCAC_site9668],8.83

row,Sequence,gcPBM binding intensity (ln)
1,ACATATCTATCGTTTTTAATTGTATATTATTATAAC [TGCATGCA_negctrl_site144],7
2,TCTTGTATATGTTAAAGTACACAACAATATATATAT [XGTACX_site6814],8.9
3,AGAAAAAAACAACATGCACACGCACCCACAAAAAAA [CACACA_site7908],10.2
4,ATATTCTTGTTTAATACACACTGTAGTATTATATAT [CACACA_site4400],7.17
5,TAATGAGCGCTTGTAGTGCATTATATTCAAAAATAT,7.92
6,TCCCACTGTTATATTGAAAAAAAAAAAAAAAAAAAA [TGCATGCA_negctrl_site288],7.28
7,AAAAAAAAAAAACACACACACACAAATATATAAAAA [CACACA_site1171],7.16
8,TTTGAAAAAAATTAATGTACATTTGAAATGACATAT [XGTACX_site3902],6.76
9,GTATAAAAGTTATATACACACAACAGAATTACATAT [CACACA_site6212],7.17
10,ATACCTTCTTTTATGTTTAATTAATATACTTTTTAT [CACACA_negctrl_site1557],7.44
11,AATACATACATACATACACACATATAAATATATTAT [CACACA_site7650],7.23
12,TTTGCCCAAAAAGGTACACACCACAATGTACATAAA [CACACA_site4599],7.14
13,TCATATATGGGTAGTATACACACTGTATATTTAGGA [CACACA_site2844],6.89
14,TTTTATTTAAATACACGTACATAATGTATATATATA [XGTACX_site7160],8.14
15,GAACATTTCACACAAAAAAAAAAAAATATATATATA [TGCATGCA_negctrl_site518],8.85
16,TCTTTTTAAATATATACACACCGTGTCTACAGATAC [CACACA_site5784],6.99
17,ACATGATGTCATAAATGTACGCACACATACATAAAC [XGTACX_site1198],7.26
18,TACTAATATAATAAAAGTACTTAAATAAATATATGT [XGTACX_site2220],7.26
19,ATGTATATATATATATGTACTAATTAGTAGTTTACG [XGTACX_site6272],7.32
20,TGTATGTATAAAAACGCATGTATGTATTTTACAATA [TGCATGCA_site767],6.7
21,GATATTTTTTTCGAAAGTACAAAAAAAAATATTTCC [XGTACX_site4389],7.01
22,AAAATTAAAAATAACACACACATATATATATTTATA [CACACA_site2776],6.9

row,Sequence,gcPBM binding intensity (ln)
1,ATATATATACCAAGTAGTACATTCTACAACTAATGT [XGTACX_site8653],7.43
2,TACTAAGAATTAATATAACAAAATAAAAAAAAAAAA [XGTACX_negctrl_site346],6.79
3,ATACAGATATATAATACACACATAAATGTAACATTT [CACACA_site5864],7.09
4,TAGATACATACACGCACACACATATATATATATATA [CACACA_site12],9.72
5,CCACATTAAAAAAAAACACACATATATTATAGATAT [CACACA_site6662],6.93
6,AATGTACGTTTTATAACACACACACTAATAAAAAAA [CACACA_site9286],7.2
7,ATCTTCAAAAATATTAGTACACATGTATCATGAATT [XGTACX_site3872],7.16
8,TTTATTTGTAACGGTTGTACTTGTATATCATTATGA [XGTACX_site4281],7.14
9,TAGTGATATAATTATGTGCACTTAATACAGGTCGAT,10.1
10,CACTAAAATAGACACACACACACACGGATATAAATA [CACACA_site7873],7.06
11,CTTAAATTTAAGTTCACACATATTGGTCATTTATAT [CACACA_site5006],6.83
12,GATGTTCATCACTACACACACAAAGAAATATAAATA [CACACA_site7294],6.9
13,TACCCAAAGTTACATACACACTAATATTTACACCAT [CACACA_site4709],7.01
14,ATATGAAGTTATATAGTGCACATGTACAACCAAATC [GTGCAC_site9974],10.4
15,TTCTATATATATATAGACAAACGATAAAATAAAAAA [GTGCAC_negctrl_site142],7.09
16,TAATAATAGTGAGAGTGTACTTTAAATAAAATATAT [XGTACX_site2850],6.85
17,AGAAAAGAAATTAGTTGTACTCTGATGAATTATCCT [XGTACX_site6284],6.79
18,TACAATTTGATATATACACACAAATAAATTATGCTT [CACACA_site6534],6.93
19,AAAAGTACAATATATATGTATGTGTATAGAATGGTT [TGCATGCA_negctrl_site76],7.33
20,ATAATATTATACTTTGCACACATCTGAAATGACATA [CACACA_site3952],7.28
21,TTTGATAAAATTGATATCCTATAATTATATAAATAA [GTGCAC_negctrl_site317],6.81
22,AAAAAACAGACATACACACACACACCCATATATATA [CACACA_site3392],7.34

row,Sequence,gcPBM binding intensity (ln)
1,GATAAAATAAAAGTGGGTACTTAAATATATATATAA [XGTACX_site8457],6.99
2,AAAGAATTTAAATATTGTACGCAATATATAAAAAAA [XGTACX_site7616],6.93
3,TAATATTATTATTTTACACACTTTTTTCCTTTTATC [CACACA_site2457],6.84
4,ATTCTATATTTAAATGCATGCACTTTCTATTTTTTT [TGCATGCA_site435],9.29
5,TTTAATTTGTTATACACACACAAAAAAAATTATAAA [CACACA_site3937],7.16
6,GACACTTTGAAGGGTACATGCAGAAAAAAAAAAAAA [TGCATGCA_site89],7.18
7,TTTTATTTATCTAATTGTACTCATTCTTTTTTGATG [XGTACX_site2876],6.88
8,GCTAAAAGTATATGCACACACATATAGATGCACATA [CACACA_site6868],9.07
9,AATGTGCCCACGCGTACACACAAAAAAAGAAAAAAA [CACACA_site2003],7.12
10,TTTTAAAAAAAAAAAAAAAAAATTAAAATAATTCAA [TGCATGCA_negctrl_site69],6.33
11,ATAAAATAATTAATGGGTACATAATTAAATAAAGAG [XGTACX_site3309],7.51
12,CATACATAGAAACACACACACACACCCACCCACAAA [CACACA_site494],7.11
13,GGATAAGATGTATATACACACAATTTAAAAAAATAA [CACACA_site910],7.08
14,AATACAATTTTTAACACACACACAATAATACAGATA [CACACA_site4823],7.17
15,GTGTAATTTATTGTGTTGCACTTTTTTTTTTTTTTT [GTGCAC_site9644],9.35
16,AAGATAGACTCATATGCATGCATTCACATACCAACA [TGCATGCA_site179],7.19
17,TTAATATAGGAATATGCACACATATATACATACATA [CACACA_site8432],7.25
18,TATATCATAAAAAATTGTACATATATATATTATATA [XGTACX_site6726],7.2
19,TGATGGGACATAAATATTGAGATGATCATAAGATAA [TGCATGCA_negctrl_site276],6.88
20,AAAGATAATATATGCACACATATAAATATATAAATA [CACACA_site3477],7.33
21,AAAAAAAAAAAAAGTACACACTTTTGCGTACAAGTA [CACACA_site5672],7.5
22,TATTTATTATATAAATGTACATAATATATGTATGTC [XGTACX_site2815],7.1
